Source: PubChem BioAssay AID1476 (National Center for Advancing Translational Sciences (NCATS), 2009)
Out of some 200,000 compounds screened, about 4,500 (2.2%) were called active. This list was built around the results that the source calls inconclusive (neither active nor inactive); the mix of calls is not that of the screen. Calls follow the shape of the dose curve; as a rule, active = well fitted inhibition curve with a large enough effect; inconclusive = small, poorly fitted or top-dose-only effect, or effect the other way; inactive = flat fitted curve, though single readings scatter. A potency beside an inconclusive call is a rough fit, not a confirmed value.

biological target: Cruzipain (Trypanosoma cruzi) (UniProt P25779); experiment: qHTS Assay for Promiscuous and Specific Inhibitors of Cruzain (without detergent); conditions: purified cruzain, Z-FR-AMC fluorescence, no detergent; also: nearly all actives have a fitted effect of over 40% in size;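 as to max response, negative = inhibition: plate controls were enzyme without inhibitor for no effect and buffer without enzyme for full effect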
How it was run: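 Purified cruzain at 1.5 nM, pre-incubated 15 min with compound at room temperature in 100 mM sodium acetate pH 5.5, 5 mM DTT, 0.00005% Triton X-100. Reaction started with 2 uM Z-FR-AMC; AMC fluorescence increase over 60 s gives rate.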
Potency is read from the fitted curve at half-maximal effect; tags tell the direction and shape of the fitted curve.

Sequence of UniProt P25779 (P25779 whole entry, looked up): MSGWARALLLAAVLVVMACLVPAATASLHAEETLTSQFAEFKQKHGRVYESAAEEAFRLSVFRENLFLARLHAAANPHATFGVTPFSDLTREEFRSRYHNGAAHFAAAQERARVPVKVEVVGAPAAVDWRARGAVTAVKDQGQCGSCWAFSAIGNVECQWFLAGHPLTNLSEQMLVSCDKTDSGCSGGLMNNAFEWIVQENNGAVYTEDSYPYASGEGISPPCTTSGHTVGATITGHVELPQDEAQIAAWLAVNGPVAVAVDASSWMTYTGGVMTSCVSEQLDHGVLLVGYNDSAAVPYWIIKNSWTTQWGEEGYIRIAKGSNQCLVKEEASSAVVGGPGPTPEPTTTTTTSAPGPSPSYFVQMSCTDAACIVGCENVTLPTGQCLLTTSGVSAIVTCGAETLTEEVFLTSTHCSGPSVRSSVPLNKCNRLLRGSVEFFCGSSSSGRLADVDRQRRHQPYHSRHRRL

| Structure (SMILES) | Potency | max response, negative = inhibition |
| --- | --- | --- |
| Cc1oc(-c2ccccc2F)nc1CS(=O)(=O)CC(=O)N1CCN(c2ccccc2)CC1 | inconclusive: 39.8 µM [activator, single point] | – |
| COc1cc(/C=C/C(=O)CC(=O)/C=C/c2ccc(O)c(OC)c2)ccc1O | inconclusive: 31.6 µM [inhibitor, partial curve] | – |
| CCCC/C=C/C(NC(=O)C(C)(C)C)c1ccccc1 (stereo unspecified) | – | inactive: 0.0146% |
| O=c1c(Oc2ccccc2F)coc2cc(OCc3cnn(-c4ccccc4)c3)ccc12 | – | inactive: -29.1% |
| Cc1ccc(NC(=O)c2cc(C(=O)c3cc(Cl)ccc3O)cn(-c3ccc(C)cc3)c2=O)cc1 | active: 5.01 µM | – |
| Cc1cccc(N2CCN(S(=O)(=O)c3ccc(-c4cnc(C5CC5)o4)cc3)CC2)c1C | inconclusive: 0.501 µM [inhibitor, full curve] | – |
| Cc1ccc(-n2c(C)cc(/C=N/NC(=O)CC3(C)OCCO3)c2C)cc1 | – | inactive: -1.83% |
| Cc1cccc(CS(=O)(=O)c2nnc([C@H](Cc3ccccc3)NC(=O)OC(C)(C)C)o2)c1 | active: 15.8 µM | – |
| COc1ccc(N2CCN(S(=O)(=O)c3ccc(CC(C)C)cc3)CC2)cc1 | – | inactive: -7.47% |
| CCCCC(=O)Nc1nnc(S(=O)(=O)N(C)Cc2ccc(Cl)cc2)s1 | – | inactive: -2.23% |
| COc1ccc(N(Cc2cccs2)C(=O)c2ccco2)cc1 | – | inactive: -2.54% |
| Cc1cc(C)cc(NC(=O)CCc2c(C)nc3nc(CNC(=O)c4cccc(F)c4)nn3c2C)c1 | inconclusive: 31.6 µM [activator, single point] | – |
| O=C(CSc1nc(C2CC2)nc2ccccc12)N1c2ccccc2Sc2ccccc21 | active: 25.1 µM | – |
| CCc1cccc(C)c1NC(=O)c1ccc2c(c1)CCN2S(=O)(=O)c1ccc(Cl)cc1 | inconclusive: 25.1 µM [inhibitor, single point] | – |
| Cc1cccc(NC(=O)c2sc(-c3ccccc3)nc2-c2ccc([N+](=O)[O-])cc2)c1 | active: 20 µM | – |
| COc1ccccc1N1CCN(C(=O)COc2ccc(C)cc2Br)CC1 | inconclusive: 31.6 µM [activator, single point] | – |
| CCS(=O)(=O)N1CCc2cc(C(=O)Nc3ccc(Br)cc3F)ccc21 | – | inactive: -11.6% |
| CC(=O)c1ccc(N2CCN(C(=O)c3cn(C)c(=O)c4c3c3ccccc3n4C)CC2)cc1 | inconclusive: 31.6 µM [activator, single point] | – |
| Cc1ccc(-n2c(=O)c3c(c4cc(C)ccc4n3C)n(CC(=O)Nc3ccc(F)cc3)c2=O)cc1 | – | inactive: 13% |
| Cc1cc2nc3c(=O)[nH]c(=O)nc-3n(CC(O)C(O)C(O)COP(=O)(O)O)c2cc1C (stereo unspecified) | – | inactive: -17.2% |
| Cc1cc(NS(=O)(=O)c2ccc(NC(=O)COc3c(C)ccc(C)c3C)cc2)nc(C)n1 | inconclusive: 39.8 µM [activator, single point] | – |

| Structure (SMILES) | Potency | max response, negative = inhibition |
| --- | --- | --- |
| Cc1ccc(NC(=O)O/N=C2\CCCCC2c2ccc([N+](=O)[O-])cc2[N+](=O)[O-])cc1 (stereo unspecified) | inconclusive: 39.8 µM [inhibitor, single point] | – |
| Cc1ccc(C(=O)N/C(=C/c2ccc(-c3cc(C(F)(F)F)ccc3Cl)o2)C(=O)NCc2cccnc2)cc1 | inconclusive: 6.31 µM [inhibitor, single point] | – |
| CC(CNC(=O)c1ccc2c(c1)nc1n2CCCCC1)c1ccccc1 (stereo unspecified) | – | inactive: -12.8% |
| CC1CCCCN1S(=O)(=O)c1ccc(N(C(=O)c2cnccn2)C(C(=O)NC2CCCCC2)c2cccs2)cc1 (stereo unspecified) | inconclusive: 31.6 µM [activator, single point] | – |
| NC(N)=NC(N)=Nc1ccccc1 (tested in a mixture with another compound) | – | inactive: 4.32% |
| CC(C)(C)c1ccc(C(=O)NCCCN2CCN(CCCNC(=O)c3ccc(C(C)(C)C)cc3)CC2)cc1 | inconclusive: 15.8 µM [activator, partial curve] | – |
| COc1ccc(CNC(=O)c2ccc3c(c2)N(Cc2cc(C)ccc2C)C(=O)CS3)cc1 | – | inactive: 12.1% |
| COc1cccc(CNC(=O)c2cc(-c3ccc(Cl)cc3)n[nH]2)c1 | – | inactive: -4.43% |
| CC(=O)OC1CC(OC(C)=O)[C@]2(C)C(CC(O)[C@]3(C)C2CC[C@@]2(C)C(c4ccoc4)OC(=O)C4O[C@]432)C1(C)C (stereo partly specified) | inconclusive: 25.1 µM [activator, partial curve] | – |
| Cc1ccc(-n2nnnc2SCC(=O)Nc2nc(-c3ccc(F)cc3)cs2)cc1C | inconclusive: 39.8 µM [inhibitor, single point] | – |
| [O-][n+]1onc2c3cc(-c4ccccc4)nnc3ccc21 | inconclusive: 20 µM [inhibitor, single point] | – |
| O=C1CSC(c2ccc(F)cc2)N1c1nnc(C23CC4CC(CC(C4)C2)C3)s1 (stereo unspecified) | inconclusive: 39.8 µM [inhibitor, single point] | – |
| O=C(Nc1nc2c(s1)CCCC2)c1cc(-c2ccncc2)nc2ccccc12 | inconclusive: 15.8 µM [inhibitor, partial curve] | – |
| COc1cc2c(cc1OC)-c1cc(N3CCCCCC3)nc(=O)n1CC2 | active: 12.6 µM | – |
| Cc1sc(-n2cccc2)c(C(C)NC(=O)Nc2cccc(C(F)(F)F)c2)c1C (stereo unspecified) | – | inactive: -9.21% |
| Cc1ccc(S(=O)(=O)N2CC=C(c3c(C)n(CC(=O)N4CCCC4)c4ccccc34)CC2)cc1C | inconclusive: 7.94 µM [activator, single point] | – |
| Cc1ccc(OCCSc2nc3ccc(NC(=O)c4cccs4)cc3s2)cc1 | – | inactive: -0.308% |
| Cc1ccc(NC(=O)CN2C(=O)S/C(=C\c3cccn3-c3cccc(C(=O)O)c3)C2=O)c(C)c1 | inconclusive: 39.8 µM [inhibitor, single point] | – |
| CCOc1ccc(NC(=O)c2cn(CC(C)C)c(=O)c3c2c2ccccc2n3C)cc1 | inconclusive: 5.01 µM [activator, full curve] | – |
| Cc1c(C(=O)NCc2ccc3c(c2)OCO3)oc2ccc(S(=O)(=O)N3CCCCC3)cc12 | inconclusive: 39.8 µM [inhibitor, single point] | – |
